{"sequences": {"note": "Chains of the proteins cited; added tags and fusions are not shown.", "UniProt Q94A79": "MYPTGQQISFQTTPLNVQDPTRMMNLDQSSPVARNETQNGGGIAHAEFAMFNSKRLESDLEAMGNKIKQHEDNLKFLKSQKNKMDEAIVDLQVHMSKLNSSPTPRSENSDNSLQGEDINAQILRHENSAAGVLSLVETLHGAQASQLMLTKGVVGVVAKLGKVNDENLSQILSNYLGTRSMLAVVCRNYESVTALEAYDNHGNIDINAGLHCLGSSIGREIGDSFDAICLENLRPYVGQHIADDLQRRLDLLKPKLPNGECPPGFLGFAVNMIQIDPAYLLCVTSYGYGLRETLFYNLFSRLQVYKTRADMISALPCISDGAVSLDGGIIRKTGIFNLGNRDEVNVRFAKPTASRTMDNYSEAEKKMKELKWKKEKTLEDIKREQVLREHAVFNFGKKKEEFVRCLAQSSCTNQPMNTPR"}, "source": "paper PMC3898904", "molecules": {"B1": {"name": "SUVH2-3xMyc (protein, UniProt O22781 1-651)", "chain": "MSTLLPFPDLNLMPDSQSSTAGTTAGDTVVTGKLEVKSEPIEEWQTPPSSTSDQSANTDLIAEFIRISELFRSAFKPLQVKGLDGVSVYGLDSGAIVAVPEKENRELIEPPPGFKDNRVSTVVVSPKFERPRELARIAILGHEQRKELRQVMKRTRMTYESLRIHLMAESMKNHVLGQGRRRRSDMAAAYIMRDRGLWLNYDKHIVGPVTGVEVGDIFFYRMELCVLGLHGQTQAGIDCLTAERSATGEPIATSIVVSGGYEDDEDTGDVLVYTGHGGQDHQHKQCDNQRLVGGNLGMERSMHYGIEVRVIRGIKYENSISSKVYVYDGLYKIVDWWFAVGKSGFGVFKFRLVRIEGQPMMGSAVMRFAQTLRNKPSMVRPTGYVSFDLSNKKENVPVFLYNDVDGDQEPRHYEYIAKAVFPPGIFGQGGISRTGCECKLSCTDDCLCARKNGGEFAYDDNGHLLKGKHVVFECGEFCTCGPSCKSRVTQKGLRNRLEVFRSKETGWGVRTLDLIEAGAFICEYAGVVVTRLQAEILSMNGDVMVYPGRFTDQWRNWGDLSQVYPDFVRPNYPSLPPLDFSMDVSRMRNVACYISHSKEPNVMVQFVLHDHNHLMFPRVMLFALENISPLAELSLDYGLADEVNGKLAICN"}, "B2": {"name": "MORC6-3xMyc (protein, UniProt Q56Y74 1-663)", "chain": "MSHDRSVNVSHDAVIAKPERGTMLQSFSPRSHGSKGYSLPQDSEENRGSVGQSAGQSSTSVVDQVRSPADDAGVTSSSTICPAPVCRQFWKAGSYNDELSSKSQQPNGKNYLHVHPMFLHSNATSHKWAFGAVAELLDNAVDEIQNGATFVIVDKTTNPRDGATALLIQDDGGGMDPQAMRHCMGFGFSDKKSDSAIGRYGNGFKTSTMRLGADVIVFSRHSKNQTLTQSIGLLSYTYLTRTGHDRIVVPILDYEFNASAGEFKTLQDREHFISSLSILLEWSPFSTEAELLQQFDDVGPHGTKVIIYNMWLNSDAKLELDFDSVAEDILIEGSIKKTGSKIVNDHIASRFSYSLRVYLSILYLRIPETFKIILRGKVVEHHNVADDLMHPQYILYKPQAAGSEEALVVTTIGFLKEAPKVNLHGFCVYHKNRLIMPFWQVINYSSSRGRGVVGVLEANFVEPTHNKQDFEKTVLLQKLENRLKEMTVEYWSCHCVLIGYQVNKKPRLQIPQKVQPAGRQALSPPPGFQAVFPQGNTTSLPRVSTQPVLLEKRKEHPDSVASAALKRKVGNDDFTVPGHIRVEQFIHGSASQSQDIETVKLMEENKKLRAKCLDRKVRSQNLEVKAMNLRSELENYKSEYERLMVELQALDLVKDEHRRNVNT"}, "B3": {"name": "MORC6 (yeast two-hybrid fusion) (protein, UniProt Q56Y74 1-663)", "chain": "B2 chain"}, "B4": {"name": "SUVH9 (yeast two-hybrid fusion) (protein, UniProt Q9T0G7 1-650)", "chain": "MGSSHIPLDPSLNPSPSLIPKLEPVTESTQNLAFQLPNTNPQALISSAVSDFNEATDFSSDYNTVAESARSAFAQRLQRHDDVAVLDSLTGAIVPVEENPEPEPNPYSTSDSSPSVATQRPRPQPRSSELVRITDVGPESERQFREHVRKTRMIYDSLRMFLMMEEAKRNGVGGRRARADGKAGKAGSMMRDCMLWMNRDKRIVGSIPGVQVGDIFFFRFELCVMGLHGHPQSGIDFLTGSLSSNGEPIATSVIVSGGYEDDDDQGDVIMYTGQGGQDRLGRQAEHQRLEGGNLAMERSMYYGIEVRVIRGLKYENEVSSRVYVYDGLFRIVDSWFDVGKSGFGVFKYRLERIEGQAEMGSSVLKFARTLKTNPLSVRPRGYINFDISNGKENVPVYLFNDIDSDQEPLYYEYLAQTSFPPGLFVQQSGNASGCDCVNGCGSGCLCEAKNSGEIAYDYNGTLIRQKPLIHECGSACQCPPSCRNRVTQKGLRNRLEVFRSLETGWGVRSLDVLHAGAFICEYAGVALTREQANILTMNGDTLVYPARFSSARWEDWGDLSQVLADFERPSYPDIPPVDFAMDVSKMRNVACYISHSTDPNVIVQFVLHDHNSLMFPRVMLFAAENIPPMTELSLDYGVVDDWNAKLAICN"}}, "key": {"[1]": {"target": "T1, SUVH2-3xMyc (Arabidopsis thaliana) (UniProt O22781)", "T1 sequence": "B1 chain", "experiment": "co-IP; protein extracts of transgenic plants incubated with agarose-conjugated antibodies in Lysis buffer at 4°C for 2-3 h, four washes, Western blotting"}, "[2]": {"target": "… IN MERISTEM … 3 (DMS3), endogenous (Arabidopsis thaliana (endogenous in plants)) (UniProt Q94A79)", "experiment": "co-IP; protein extracts of transgenic plants incubated with agarose-conjugated antibodies in Lysis buffer at 4°C for 2-3 h, four washes, Western blotting"}, "[3]": {"target": "T2, SUVH9-3xFlag (Arabidopsis thaliana) (UniProt Q9T0G7)", "T2 sequence": "B4 chain", "experiment": "co-IP; protein extracts of transgenic plants incubated with agarose-conjugated antibodies in Lysis buffer at 4°C for 2-3 h, four washes, Western blotting"}, "[4]": {"target": "T3, MORC1-3xFlag (Arabidopsis thaliana) (UniProt Q84WV6)", "T3 sequence": "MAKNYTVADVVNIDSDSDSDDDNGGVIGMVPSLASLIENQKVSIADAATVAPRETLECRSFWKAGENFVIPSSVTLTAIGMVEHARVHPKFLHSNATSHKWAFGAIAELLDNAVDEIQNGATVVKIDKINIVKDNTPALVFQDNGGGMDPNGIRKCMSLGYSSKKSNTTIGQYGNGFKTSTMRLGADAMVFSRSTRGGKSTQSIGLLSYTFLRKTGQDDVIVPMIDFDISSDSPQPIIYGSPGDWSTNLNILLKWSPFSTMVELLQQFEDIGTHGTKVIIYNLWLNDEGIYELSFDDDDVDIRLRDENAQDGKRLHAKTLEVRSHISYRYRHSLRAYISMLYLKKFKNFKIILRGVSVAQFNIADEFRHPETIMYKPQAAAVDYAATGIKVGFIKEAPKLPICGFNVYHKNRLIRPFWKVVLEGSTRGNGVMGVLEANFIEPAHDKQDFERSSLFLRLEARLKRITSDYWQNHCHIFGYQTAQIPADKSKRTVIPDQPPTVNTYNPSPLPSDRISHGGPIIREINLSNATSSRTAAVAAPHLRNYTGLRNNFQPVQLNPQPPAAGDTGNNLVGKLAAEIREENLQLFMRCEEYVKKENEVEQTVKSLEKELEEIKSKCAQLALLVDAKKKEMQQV", "experiment": "co-IP; protein extracts of transgenic plants incubated with agarose-conjugated antibodies in Lysis buffer at 4°C for 2-3 h, four washes, Western blotting"}, "[5]": {"target": "T4, MORC1 (yeast two-hybrid fusion) (Arabidopsis thaliana) (UniProt Q84WV6)", "T4 sequence": "T3 sequence", "experiment": "two-hybrid; GAL4-AD (pGADT7) and GAL4-BD (pGBKT7) fusions in yeast strain PJ694a; growth on SD-TLH, 20 mM 3-AT"}, "[6]": {"target": "T5, MORC2 (yeast two-hybrid fusion) (Arabidopsis thaliana) (UniProt Q5FV35)", "T5 sequence": "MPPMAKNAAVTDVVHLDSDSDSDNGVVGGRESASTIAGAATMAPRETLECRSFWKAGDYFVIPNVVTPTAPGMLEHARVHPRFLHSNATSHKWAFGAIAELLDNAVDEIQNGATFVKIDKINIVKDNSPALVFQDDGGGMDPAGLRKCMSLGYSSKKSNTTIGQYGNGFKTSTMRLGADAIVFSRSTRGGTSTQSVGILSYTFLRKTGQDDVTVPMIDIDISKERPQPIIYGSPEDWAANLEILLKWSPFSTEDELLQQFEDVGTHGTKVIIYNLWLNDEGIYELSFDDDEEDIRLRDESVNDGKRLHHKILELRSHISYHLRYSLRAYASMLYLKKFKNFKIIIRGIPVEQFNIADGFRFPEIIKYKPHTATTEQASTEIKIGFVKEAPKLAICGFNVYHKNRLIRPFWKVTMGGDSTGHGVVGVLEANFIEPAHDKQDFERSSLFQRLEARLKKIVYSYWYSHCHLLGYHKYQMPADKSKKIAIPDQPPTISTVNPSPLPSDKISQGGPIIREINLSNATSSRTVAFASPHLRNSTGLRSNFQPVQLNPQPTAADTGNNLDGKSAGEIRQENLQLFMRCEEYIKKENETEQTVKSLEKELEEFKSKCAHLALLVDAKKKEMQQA", "experiment": "two-hybrid; GAL4-AD (pGADT7) and GAL4-BD (pGBKT7) fusions in yeast strain PJ694a; growth on SD-TLH, 20 mM 3-AT"}, "[7]": {"target": "T6, MORC6 (yeast two-hybrid fusion) (Arabidopsis thaliana) (UniProt Q56Y74)", "T6 sequence": "B2 chain", "experiment": "two-hybrid; GAL4-AD (pGADT7) and GAL4-BD (pGBKT7) fusions in yeast strain PJ694a; growth on SD-TLH, 20 mM 3-AT"}}, "note": "These are yes or no findings as the source states them, for the method shown. For some of these results: Binding seen in cells or lysates may run through a third protein. Some results given as binding are weak or reduced against the parent protein; the word gives no strength. Where a sequence is shown, tags or fusion partners need not be part of it.", "data": [{"molecule": "… IN MERISTEM … 3 (DMS3), endogenous (from UniProt Q94A79 1-420)", "values": [{"measurement": "binding", "setting": "[1]", "value": "binds"}]}, {"molecule": "B1", "values": [{"measurement": "binding", "setting": "[2]", "value": "binds"}]}, {"molecule": "B2", "values": [{"measurement": "binding", "setting": "[3]", "value": "binds"}, {"measurement": "binding", "setting": "[4]", "value": "binds"}]}, {"molecule": "B3", "values": [{"measurement": "binding", "setting": "[5]", "value": "binds"}, {"measurement": "binding", "setting": "[6]", "value": "binds"}]}, {"molecule": "B4", "values": [{"measurement": "binding", "setting": "[7]", "value": "binds"}]}]}
